Test results as given in PubChem BioAssay (NCI).
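Grown in 96-well plates, cells were treated for 48 hours with each compound at five concentrations. Insufficient inhibition: endpoint recorded as highest concentration tested. GI50 = concentration required for 50% inhibition of growth. TGI marks complete inhibition of growth.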 Peptide text beside a SMILES is read from it. * marks the point of attachment. Boc = CC(C)(C)OC(=O)*

Test system: NCI-H322M lung
Assay: growth of human tumour cells (NCI), 48 h

SMILES | TGI [µM] | GI50 [µM]
O=C(Nc1ccc(Br)cc1)c1c(-c2ccccc2)c2ccc(O)cc2oc1=O | > 10 | 
C/C(CCOC1CCCCO1)=C(\C)[Si](C)(C)C (configuration not stated) | > 100 | 
Cc1cc(N(CCOS(C)(=O)=O)CCOS(C)(=O)=O)ccc1C=Nc1ccc(-c2nc(Cc3ccccc3)sc2C)cc1 | 18.6 | 
NC(=O)N/N=C(\Cc1nc2ccc(Cl)cc2[nH]c1=O)C(=O)Nc1ccc(Cl)cc1Cl | > 100 | 
N#CSCC1CC(O)(c2ccccc2)C(c2ccccc2)C(c2ccc(Cl)cc2)O1 (configuration not stated) | 7.77 | 2.24
COc1cc(/C=C2/C(=O)N(C(=O)c3ccccc3O)N=C2C)cc(OC)c1OC | > 100 | 
COc1ccccc1Nc1nc(N)nc(N)c1N=O | > 100 | 
N.N.N.O=[N+]([O-])[O-].O=[N+]([O-])[O-].O=[N+]([O-])[O-].O=[N+]([O-])[O-].[Co+3] | > 100 | 
O=C1/C(=C/c2ccc(Cl)cc2Cl)N=C(c2ccccc2)N1Cc1ccco1 | 55.7 | 18.9
COc1cnc2cc(C(=O)O)c3c([N+](=O)[O-])cccc3c2c1 | > 100 | 
O=C(O)c1cc2c(cc1CC(Cc1ccc3c(c1)CCC3)C(=O)O)CCC2 (configuration not stated) | > 100 | 
CC(C)c1ccc2[nH]c(O)c(-c3[nH]c4ccccc4c3N=O)c2c1 | 18.5 | 
Cc1cc(N(CCC#N)CCC#N)ccc1/C=N/NC(=O)c1cc(Cl)ccc1O | > 100 | 
CC(C)(N=NC(C)(C)C(=O)NCCO)C(=O)NCCO | > 100 | 
C=C(CN1CCc2ccccc2C1)c1ccc(C(=O)Nc2cnccn2)cc1 | > 100 | 11.2
CN(C)CCCOc1nc2c(c(=O)n(C)c(=O)n2C)n1C (tested in a mixture with another compound) | > 100 | 

SMILES | TGI [µM] | GI50 [µM]
O=NN(Cc1ccc(Cl)cc1)C(C(=O)O)c1ccccc1 (configuration not stated) | > 100 | 
O=c1[nH]n2c(=O)cc[nH]c2c1-c1nnns1 | > 100 | 
CCOC(=O)C1Cc2[nH]c3ccccc3c2C(C)C1C (configuration not stated) | 39.3 | 
C[C@]12CC[C@@H]3c4ccc(O)cc4CC[C@H]3[C@@H]1C/C(=C\c1ccncc1)C2=O | > 100 | 
COC1C(CN[N+](=O)CC2OC3OC(C)(C)OC3C2OC)OC2OC(C)(C)OC21 (configuration not stated) | > 100 | 
C=C1CC(COc2cc(=O)oc3ccccc23)(c2ccccc2)OC1=O (configuration not stated) | 25.4 | 
CCOc1cc(NC(C)=O)ccc1C(=O)NNC(=O)c1ccccc1OC(C)=O | > 100 | 
C=C(C(=O)C(=O)Oc1ccc(Cl)cc1)C(=O)c1ccc(C)cc1 | > 100 | 
CCNCCNc1cc(-c2ccc(C(=O)OC)cc2)c(C#N)c2nc3ccccc3n12 | > 100 | 15.9
O=C(O)CC/C(=N\Nc1nsc2ccccc12)c1ccccc1 | > 100 | 
O=[N+]([O-])/C=C\c1ccc(Cl)c(Cl)c1 | 5.71 | 1.85
c1ccc(C2C3=C(Nc4ncnn42)c2ccccc2C3)cc1 (configuration not stated) | > 100 | 
COC(=O)CNC(=O)C(Cc1ccccc1)NC(=O)C(CCSC)NC(=O)C(Cc1ccc(O)cc1)NC(=O)OC(C)(C)C (configuration not stated) (Boc-YMFG-OMe; configuration not given here) | > 100 | 
CSc1nc(Cl)c2c(n1)Sc1nc3cc4c(cc3n1C2O)OCCO4 (configuration not stated) | 20 | 
COc1ccc(C(C#N)NNC(=O)c2ccccc2O)cc1OC (configuration not stated) | > 100 | 
CN(C)CCCOC(=O)C(c1ccccc1)C1(O)CCSCC1 (configuration not stated) | > 100 | 
